The text below walks through data of paper PMC4336329 (PLoS ONE, 2015).

Hit rate of the full screen: of about 310,000 compounds, about 2,200 (0.71%) showed an effect of 50% or more. Effects have a minus sign here. This is one part of the list.

The target in the assay is human ether-à-go-go-related gene (hERG) potassium channel (human, UniProt Q12809). Briefly: primary screen, population patch clamp on CHO cells stably expressing hERG.
Sequence of human ether-à-go-go-related gene (hERG) potassium channel (Q12809 whole entry, looked up): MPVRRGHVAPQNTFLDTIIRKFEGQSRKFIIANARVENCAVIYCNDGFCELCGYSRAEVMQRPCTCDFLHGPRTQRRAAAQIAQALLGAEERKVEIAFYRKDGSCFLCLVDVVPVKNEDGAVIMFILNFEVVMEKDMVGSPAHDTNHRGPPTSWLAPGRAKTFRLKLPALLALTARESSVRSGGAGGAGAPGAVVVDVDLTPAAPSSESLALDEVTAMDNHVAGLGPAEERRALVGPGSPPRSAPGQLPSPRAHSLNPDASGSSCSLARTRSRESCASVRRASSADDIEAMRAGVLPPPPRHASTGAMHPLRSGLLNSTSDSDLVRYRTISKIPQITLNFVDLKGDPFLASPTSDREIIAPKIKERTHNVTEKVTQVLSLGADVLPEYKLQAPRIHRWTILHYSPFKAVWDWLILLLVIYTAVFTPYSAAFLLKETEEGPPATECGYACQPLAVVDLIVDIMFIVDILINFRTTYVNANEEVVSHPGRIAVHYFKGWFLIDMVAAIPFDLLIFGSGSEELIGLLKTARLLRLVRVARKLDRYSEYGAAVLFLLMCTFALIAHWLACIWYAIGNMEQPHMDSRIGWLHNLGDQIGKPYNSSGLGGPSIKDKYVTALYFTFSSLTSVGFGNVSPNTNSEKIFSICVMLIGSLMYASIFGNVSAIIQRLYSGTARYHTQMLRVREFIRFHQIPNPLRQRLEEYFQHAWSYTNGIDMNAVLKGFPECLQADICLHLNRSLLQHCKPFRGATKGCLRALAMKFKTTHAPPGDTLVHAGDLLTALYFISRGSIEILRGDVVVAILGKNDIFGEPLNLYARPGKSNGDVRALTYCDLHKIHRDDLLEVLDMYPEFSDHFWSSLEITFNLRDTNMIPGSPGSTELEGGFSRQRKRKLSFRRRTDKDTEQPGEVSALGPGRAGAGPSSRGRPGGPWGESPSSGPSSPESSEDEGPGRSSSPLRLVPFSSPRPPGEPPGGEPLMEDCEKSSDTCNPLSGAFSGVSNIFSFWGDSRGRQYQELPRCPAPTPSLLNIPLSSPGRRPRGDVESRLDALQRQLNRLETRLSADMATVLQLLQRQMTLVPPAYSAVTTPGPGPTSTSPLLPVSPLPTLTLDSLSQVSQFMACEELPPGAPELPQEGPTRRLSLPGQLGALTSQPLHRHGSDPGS
With `Cc1cc(OCC(=O)NCCCn2ccnc2)c2c(C)cc(=O)oc2c1`, the “hERG current change (%, negative = inhibition) at 1uM” value was found to be 14.7%.
Next, `CCc1ccc(/C=C2/SC(=S)N(CCC(=O)Nc3cccc(C(=O)O)c3)C2=O)cc1`: 0.872%; `Cc1ccc2[nH]c(=O)c(C3=NN(C(=O)CCC(=O)O)C(c4cccs4)C3)c(-c3ccccc3)c2c1` (stereo not shown): 24.3%; `COc1ccc(S(=O)(=O)NCc2ccc(C(=O)O)cc2)cc1`: 4.92%.
Then `Cc1cc2oc(=O)c3c(c2cc1OCc1nn[nH]n1)CCCC3`, with 2.45%.
Then `CC(C)(C)c1cc(C(C)(C)C)n(-c2ccccc2)n1`, with 6.91%.
Consider `CN1CCc2c(sc3nc(SCC(=O)N4CCCCC4)n(-c4ccccc4)c(=O)c23)C1`, for which the “hERG current change (%, negative = inhibition) at 1uM” value came out at 13.9%.
Next, `CC(C)(C#CCN1CCCC1)OCCC#N`: 15.1%.
Next, `COC(=O)c1ccc(COc2ccccc2/C=C(\C#N)C(=O)Nc2ccccc2C)cc1`: 3.15%.
Consider `O=S(Cc1ccc(Cl)cc1)CC(O)(c1ccccc1)c1ccccc1` (stereo not shown), for which the “hERG current change (%, negative = inhibition) at 1uM” value was determined as 6.65%.
Next, `Nc1nc(Nc2cccc(F)c2)nc(NCc2ccco2)c1[N+](=O)[O-]`: 10.6%; `CC(=O)c1cccc(OCc2cc(C(=O)N3C[C@@H](C)O[C@@H](C)C3)no2)c1`: 13.3%.
Then `O=C(c1cccc(Cl)c1)N(Cc1cccs1)C1CCS(=O)(=O)C1` (stereo not shown), with -0.295%; and `O=[N+]([O-])c1ccc(S(=O)(=O)NNC(=S)NCCc2ccccc2)cc1`, with 2.93%.
For the compound `N#CC1CCN(c2ncccc2[N+](=O)[O-])CC1`, the “hERG current change (%, negative = inhibition) at 1uM” value is 24.1%.
Take `O=C(O)CCCC(=O)N1CCCC1`: the “hERG current change (%, negative = inhibition) at 1uM” value came out at 14%.
Next, `Nc1cccc(-c2ccc(CO)o2)c1`: 8.75%.
Next, `CCCCN(C(=O)CSc1nnc(-c2ccc(OC)cc2)n1C(C)C)c1c(N)n(Cc2ccccc2)c(=O)[nH]c1=O`: -2.9%; `CCCCc1ccc(NC(=S)NCc2ccc(OC)cc2)cc1`: 0.183%.
Then `COc1ccc(NC(=O)CSc2nc(C)c3c(c2C#N)CCCC3)cc1`, with 10.1%; and `Oc1ccccc1C1=NOC(O)(C(F)F)C1` (stereo not shown), with 3.4%.
As for `COc1cc(OC)cc(C(=O)Nc2ccc3nc4n(c(=O)c3c2)CCCCC4)c1`, the “hERG current change (%, negative = inhibition) at 1uM” value is -1.21%.
Then `C=CCN(c1ccccc1)S(=O)(=O)c1ccc2c(c1)NC(=O)C(C)C(=O)N2` (stereo not shown), with 13.6%.
Next, `C=C(C)CN(CC)C(=O)CC1C(=O)NCCN1Cc1c(F)cccc1Cl` (stereo not shown): 14.3%.
Next, `Cc1nn(C)cc1CNC(=O)COc1ccc(Cl)cc1Cl`: 8.82%.
